# Among all 150,000 compounds or so, about 540 (0.36%) showed an effect of 50% or more. The list shows a part of the results.
# System: Plasmodium falciparum
# Experiment: Primary screen in NF54 nanoGlo assay, in single point, at 2uM, 72h; a lower Z score goes with more inhibition
# Assay type: functional, Erythrocyte
# Conditions: timepoint 72 hour
Compound,% Inhibition [%],Z score
O=C1CO[C@H]2CCN(c3ccnc4ccsc34)C[C@@H]2N1,-8,1.18
O=c1c2cc(F)c(F)cc2ncn1CCN1CCOCC1,-5,0.97
Cc1nnc(CNC(=O)C2CN(S(C)(=O)=O)C2)o1,-9,1.38
Cc1cc(C)n(C2(c3ccccc3)CC(C)C(=O)O2)n1 (stereo unspecified),-3,0.47
COCC(C)(C)NC(=O)Cc1cccc(N)c1,-30,3.52
CCCn1nccc1-c1cnc(-n2cnnc2)c(C)c1,-5,0.51
CCn1nccc1C(=O)N1CCC[C@H]1c1ncc(C)n1Cc1ccc(F)cc1,6,-0.76
CN(Cc1cc(Br)ccc1OC(F)F)C[C@H]1CCCCO1,-2,0.29
CCN(CC)S(=O)(=O)c1ccc2c(c1)nnn2CCC(=O)Nc1nccs1,-10,1.3
COc1cc(C)ccc1CN1CCN(Cc2ccccc2)C(=O)[C@@H]1C,-7,1.35
CN(CC(=O)N1CC[C@@H](c2ccccc2Cl)S(=O)(=O)CC1)S(C)(=O)=O,-6,1.01
Cc1nc2ccc(-n3nc(C4CC4)nc3-c3nn(C)cc3Cl)cc2s1,-6,0.94
COCc1cc(Cl)ccc1NC(=O)N1CCC[C@H](c2ccc(F)c(F)c2)C1,-3,0.36
c1ccc(-c2nnc(-c3cccnc3NCCN3CCOCC3)o2)cc1,-31,2.98
Cc1ccccc1OC[C@@H](O)CN(C(C)C)C(C)C,-2,0.31
C[C@](O)(CCNc1ncnc2sccc12)c1ccccc1,-14,1.62
CC1(C(=O)NCc2nnc(N)o2)CCCCCC1,-9,0.99
NCc1noc(-c2ccc3c(c2)CCCC3)n1,-10,1.43
O=C(C(O)c1ccccc1)N1CCC(Oc2cccnn2)C1 (stereo unspecified),-5,0.85
CC(C)N1CC(NC(=O)N2CCC(c3cnn(C)c3)C2)CC1=O (stereo unspecified),-9,1.44
COc1ncccc1C(=O)Nc1cccc(-c2csc(Nc3ccc(F)cc3F)n2)c1,11,-1.38
CCCCN1C(=O)[C@@H]2C(Cc3ccc(O)cc3)NC3(C(=O)Nc4c(C)cc(C)cc43)[C@@H]2C1=O (stereo partly specified),-6,1

Compound,% Inhibition [%],Z score
O=C(c1coc2ccccc12)N1CCn2cnnc2C1,1,-0.13
CCOc1ccc(OCC)c(-c2nc3ccc(-c4ccc(OC)c(OC)c4OC)cc3o2)c1,-20,1.77
Nc1ncncc1C(=O)OCC(=O)N1CCCC1,-12,1.23
COCCN1CCC[C@H](CNC(=O)N2CC(c3nc4ccccc4[nH]3)C2)C1,-8,1.5
O=C(NCc1cccs1)C1CCN(c2cnc(N3CCCCCC3)nc2)CC1,-7,1.07
Cc1n[nH]c(C)c1CCNC(=O)[C@]1(c2ccccc2)CC12CCCC2,-14,2.39
COCC1(O)CCN(C(=O)Nc2ccc(Cl)cn2)CC1,3,-0.72
CCc1cccc(Cl)c1CNCc1nc(C2CC2)n[nH]1,1,-0.18
Nc1ccnc2ccc(-c3ccc(C(=O)N4CCC5(CCO5)CC4)cc3)cc12,11,-1.81
CCc1ocnc1C(=O)N1CCC[C@@]2(CCC(=O)N(CCOC)C2)C1,-9,1.19
Cc1cccc(C[C@@H](CO)Nc2ccnc3c2cnn3C)c1,-10,1.85
O=C(c1coc2ccccc12)N1CCC(F)(F)CC1,-12,2.01
CCn1nnc(C)c1CN[C@@H](COC)c1cccc(Cl)c1,-10,2.06
Cn1nc(-c2ccc(F)cc2)cc1C(=O)N1CCC(n2c(=O)[nH]c3ncccc3c2=O)CC1,-11,1.44
CCCc1nc(CN(C)CC(=O)NC2CCCCCC2)no1,7,-1.05
Cc1ccc(NC(=O)CCNC(=O)Cc2coc3cc(C)c(C)cc23)cc1,-7,0.95
Cc1ncoc1-c1nc(COc2ccccc2)nn1CCc1cnc[nH]1,4,-0.69
CCOc1ccccc1[C@H]1C2CCCCC2(O)CCN1C/C=C/c1ccccc1 (stereo partly specified),-10,1.31
O=C(O)[C@@H]1CCCN1C(=O)c1ccc(Oc2ccncc2)c(Cl)c1,-2,0.32
COCC1CCN(C(=O)C2CCCCCC2)CC1,12,-1.66
CCCCc1cn(C2CCN(C(=O)[C@H](C)N3CCCC3)CC2)nn1,-11,1.57

# Source: ChEMBL document CHEMBL4888484, “Replenishing the malaria drug discovery pipeline: Screening and hit evaluation of the MMV Hit Generation Library 1 (HGL1) against asexual blood stage Plasmodium falciparum ,using a nano luciferase reporter read-out” (2022)
